{
  "source": "the RNAGym collection of RNA variant scans (doi:10.1093/nar/gkz1192)",
  "parents": {"B1": {"name": "CPEB3 Ribozyme (parent)", "chain": "UAACAGGGGGCCACAGCAGAAGCGUUCACGUCGCAGCCCCUGUCAGAUUCUGGUGAAUCUGCGAAUUCUGCUGUAUAUCUC"}},
  "note": "The source gives no read counts; variants with many changes may rest on few reads.",
  "data": [
    {"variants_of": "B1", "assay": "self-cleavage, relative activity (ratio to wild type); higher = more cleavage; in vitro, sequencing", "summary_of_the_method": "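Relative activity was defined as the cleaved/total read fraction for a variant divided by the same fraction for the unmutated ribozyme. CPEB3 self-cleaving ribozyme libraries were made by rounds of error-prone PCR, barcoded, and transcribed in vitro with T7 RNA polymerase for 5 hours at 37°C, and cleavage ran through transcription plus a 15 min DNase I step before EDTA. Illumina sequencing of template-switched reverse transcripts gave the reads, and DNA sequencing mapped the barcodes. Averages come from three batches, using variants with at least 5 reads.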", "values": [
      {"variant": "UAACAGGGGGCCACAGCAGAGGCGUUCACGCCGCAGCCCCUGUCAGAUUCUGGUGGAUCUGCGAAUUCUGCCGUAUAUCUC", "note": "[A21G U31C A56G U72C]", "self-cleavage": 0.16},
      {"variant": "UAACAGGGGGCCACAGCAGAGGCGUUCACGCCGCAGCCCCUGUCAGAUUCUGGUGAAUCUGCGGAGUCUGCUAUAUAUCUC", "note": "[A21G U31C A64G U66G G73A]", "self-cleavage": 0.12},
      {"variant": "UAACAGGGGGCCACAGCAGAGGCGUUCACGCCGCAGCACCUGACAGAUUCCGGUGAAUCCGCGAAUUCUGCUGUAUAUCUC", "note": "[A21G U31C C38A U43A U51C U60C]", "self-cleavage": 0.09},
      {"variant": "UAACAGGGGGCCACAGCAGAGGCGUUCACGCCGCAGCUCCUGUCAGAUUCUGGUGAAUCUGCGAAUUCUGCUGUAUAUCUC", "note": "[A21G U31C C38U]", "self-cleavage": 0.18},
      {"variant": "UAACAGGGGGCCACAGCAGAGGCGUUCACGCCGCAGCCCCUGUCAGAUUUUGGUGGAUCUGCGAAUUCUGCUGUAUAUCUC", "note": "[A21G U31C C50U A56G]", "self-cleavage": 0.16},
      {"variant": "UAACAGGGGGCCACAGCAGAGGCGUUCACGCCGCAGCCCCCGUCAGAUUCUGGUGAAACUGCGAAUUCUGCUGUAUAUCUC", "note": "[A21G U31C U41C U58A]", "self-cleavage": 0.09},
      {"variant": "UAACAGGGGGCCACAGCAGAGGCGUUCACGCCGCAGCCCCUGCCAGAUUCUGGUGAAUCUGCGAAUUCUGCUGUAUAUCUC", "note": "[A21G U31C U43C]", "self-cleavage": 0.3},
      {"variant": "UAACAGGGGGCCACAGCAGAGGCGUUCACGCCGCAGCCCCUGUCAGAUCCCGGUGAAUCUGCGAAUUCUGCUGUAUAUCUC", "note": "[A21G U31C U49C U51C]", "self-cleavage": 0.09},
      {"variant": "UAACAGGGGGCCACAGCAGAGGCGUUCACGCCGCAGCCCCUGUCAGAUUCCGGUGAAUCUGCGGAUCCUGCUGUAUAUCUC", "note": "[A21G U31C U51C A64G U67C]", "self-cleavage": 0.11},
      {"variant": "UAACAGGGGGCCACAGCAGAGGCGUUCACGCCGCAGCCCCUGUCAGAUUCCGGUGAAUCUGCUAAUUCUGCCGUAUAUCUC", "note": "[A21G U31C U51C G63U U72C]", "self-cleavage": 0.15},
      {"variant": "UAACAGGGGGCCACAGCAGAGGCGUUCACGCCGCAGCCCCUGUCAGAUUCUGGCGAAUCUGCGAAUUCUGCUGUAUAUCUC", "note": "[A21G U31C U54C]", "self-cleavage": 0.23},
      {"variant": "UAACAGGGGGCCACAGCAGAGGCGUUCACGCCGCAGCCCCUGUCAGAUUCUGGCGAAUCUGCGUAUUCUGCUGUAUAUCUC", "note": "[A21G U31C U54C A64U]", "self-cleavage": 0.11},
      {"variant": "UAACAGGGGGCCACAGCAGAGGCGUUCACGCCGCAGCCCCUGUCAGAUUCUGGUGAAUCCGCGAAUUCUGCUGUAUAUCUC", "note": "[A21G U31C U60C]", "self-cleavage": 0.11},
      {"variant": "UAACAGGGGGCCACAGCAGAGGCGUUCACGGCGCAGCCCCUGUCAGAUUCUGGAGAAUCUGAGAGUUCUGCUGUAUAUCUC", "note": "[A21G U31G U54A C62A A65G]", "self-cleavage": 0.1},
      {"variant": "UAACAGGGGGCCACAGCAGAGGCGUUCACGGCGCAGCCCCUGUCAGAUUCUGGUGAAUCUGCGAAUACUGCUGUAUAUCUC", "note": "[A21G U31G U67A]", "self-cleavage": 0.29},
      {"variant": "UAACAGGGGGCCACAGCAGAGGCGUUCACGUCGCAGCCCCAGUCUGAUGCUGGUGAAUCUGCGAGUUCUGCUGUAUAUCUC", "note": "[A21G U41A A45U U49G A65G]", "self-cleavage": 0.05},
      {"variant": "UAACAGGGGGCCACAGCAGAGGCGUUCACGUCGCAGCCCCAGUCAGGUUCUGGUGAAUAUGCGAAUUCUGCUGUAUAUCUC", "note": "[A21G U41A A47G C59A]", "self-cleavage": 0.16},
      {"variant": "UAACAGGGGGCCACAGCAGAGGCGUUCACGUCGCAGCCCCAGUCAGAUUCUGGUGAAUCUGCGAGUUCUGCAGUAUAUCUC", "note": "[A21G U41A A65G U72A]", "self-cleavage": 0.05},
      {"variant": "UAACAGGGGGCCACAGCAGAGGCGUUCACGUCGCAGCCCCACUCAGAUUCUGGUGAAUCUGCGAAUUCUGCUGUAUAUCUC", "note": "[A21G U41A G42C]", "self-cleavage": 0.15},
      {"variant": "UAACAGGGGGCCACAGCAGAGGCGUUCACGUCGCAGCCCCAGUCAGAUUCUCGUGGAUCUGCGAAUCCUCCCGUAUAUCUC", "note": "[A21G U41A G52C A56G U67C G70C U72C]", "self-cleavage": 0.21},
      {"variant": "UAACAGGGGGCCACAGCAGAGGCGUUCACGUCGCAGCCCCAGGCAGAUUCUGGUGAAUCUGCGAACUCCGCCGUAUAUCUC", "note": "[A21G U41A U43G U66C U69C U72C]", "self-cleavage": 0.09},
      {"variant": "UAACAGGGGGCCACAGCAGAGGCGUUCACGUCGCAGCCCCAGUCAGACUCUGGUGAAUCUGCGAAUUCUACGGUAUAUCUC", "note": "[A21G U41A U48C G70A U72G]", "self-cleavage": 0.09},
      {"variant": "UAACAGGGGGCCACAGCAGAGGCGUUCACGUCGCAGCCCCAGUCAGAUUCAGGUGAAUCUGCGAAUCCUGCAGUAUAUCUC", "note": "[A21G U41A U51A U67C U72A]", "self-cleavage": 0.06},
      {"variant": "UAACAGGGGGCCACAGCAGAGGCGUUCACGUCGCAGCCCCAGUCAGAUUCCGGUGAAUCUGCGAAUUCUGCUGUAUAUCUC", "note": "[A21G U41A U51C]", "self-cleavage": 0.15},
      {"variant": "UAACAGGGGGCCACAGCAGAGGCGUUCACGUCGCAGCCCCAGUCAGAUUCUGGCGAAUCUGCGAAUUCUGCUGUAUAUCUU", "note": "[A21G U41A U54C C81U]", "self-cleavage": 0.12},
      {"variant": "UAACAGGGGGCCACAGCAGAGGCGUUCACGUCGCAGCCCCAGUCAGAUUCUGGUGAAUCCGCGGAUUCUGCUGUAUAUCUC", "note": "[A21G U41A U60C A64G]", "self-cleavage": 0.27},
      {"variant": "UAACAGGGGGCCACAGCAGAGGCGUUCACGUCGCAGCCCCCGUCGAAUUCUGGUGAAUCUGCGUAUUCUGCUGUAUAUCUC", "note": "[A21G U41C A45G G46A A64U]", "self-cleavage": 0.04},
      {"variant": "UAACAGGGGGCCACAGCAGAGGCGUUCACGUCGCAGCCCCCUUCAGAUUCUGGUGAAUCUGCGAAUUCUGCUGUAUAUCUC", "note": "[A21G U41C G42U]", "self-cleavage": 0.14},
      {"variant": "UAACAGGGGGCCACAGCAGAGGCGUUCACGUCGCAGCCCCCGUCAGAUUCUCGUGAAUCUGCGAAUUCUGCUGUAUAUCUC", "note": "[A21G U41C G52C]", "self-cleavage": 0.28},
      {"variant": "UAACAGGGGGCCACAGCAGAGGCGUUCACGUCGCAGCCCCCGCCAGACUCUGGUGAAUCUGCGAGUUCUGUAGUAUAUCUC", "note": "[A21G U41C U43C U48C A65G C71U U72A]", "self-cleavage": 0.28},
      {"variant": "UAACAGGGGGCCACAGCAGAGGCGUUCACGUCGCAGCCCCCGUCAGACUCUGGUGAAUAUGCGAAUUCCGCUGUAUAUCUC", "note": "[A21G U41C U48C C59A U69C]", "self-cleavage": 0.08},
      {"variant": "UAACAGGGGGCCACAGCAGAGGCGUUCACGUCGCAGCCCCCGUCAGAUACUGGUGAAUCUGCGAAUUCUGCAGUAUAUCUC", "note": "[A21G U41C U49A U72A]", "self-cleavage": 0.51},
      {"variant": "UAACAGGGGGCCACAGCAGAGGCGUUCACGUCGCAGCCCCCGUCAGAUUCGGGUGAGUCUGCGAAUUCUGCUGUAUAUCUC", "note": "[A21G U41C U51G A57G]", "self-cleavage": 0.35},
      {"variant": "UAACAGGGGGCCACAGCAGAGGCGUUCACGUCGCAGCCCCCGUCAGAUUCUGGUGAAUCAGCGUAUUCUGCUGUAUAUCUC", "note": "[A21G U41C U60A A64U]", "self-cleavage": 0.13}
    ]}
  ]
}
